Test results: ChEMBL document CHEMBL4888484, “Replenishing the malaria drug discovery pipeline: Screening and hit evaluation of the MMV Hit Generation Library 1 (HGL1) against asexual blood stage Plasmodium falciparum ,using a nano luciferase reporter read-out” (2022)
About 540 (0.36%) of roughly 150,000 compounds showed an effect of 50% or more. The list shows a part of the results.

System: Plasmodium falciparum
Assay: Primary screen in NF54 nanoGlo assay, in single point, at 2uM, 72h; a lower Z score goes with more inhibition
Assay type: functional, Erythrocyte
Conditions: timepoint 72 hour

SMILES	% Inhibition [%]	Z score
COc1ccc(CNC(=O)[C@H]2CCCN(c3cnn(C)c(=O)c3)C2)cc1OC	27	-3.02
Cc1ccc(NC(=O)N2CCCOCCNC(=O)[C@@H]3CCCC[C@@H]32)cc1C	6	-0.7
CN1CCC(O)(C(=O)NCCc2c(Cl)cccc2Cl)CC1	-19	1.87
O=C(CCc1ccncc1)N1CCC(OC[C@H]2CCCO2)CC1	-13	1.92
CC(C)(C)OC(=O)N[C@H]1CCc2nc(NC(=O)c3coc(CC4CC4)n3)sc2C1	-6	0.92
COc1cc(OC)cc(C(=O)N2CCc3nc(-c4cccc(F)c4)[nH]c(=O)c3C2)c1	-15	1.46
Cc1ccc(CCNC(=O)c2n[nH]c3c2CCC3)s1	-13	2.64
CC(C)NC(=O)c1cc(N[C@H](C(N)=O)C(C)C)ccn1	-7	0.91
NC(=O)Cn1cccc1-c1nc(-c2ccc3c(c2)OCO3)no1	-10	1.24
O=C(Nc1cncc(F)c1)c1cccc(S(=O)(=O)NC[C@H]2CCOC2)c1	-5	0.5
CCCN(Cc1nccn1C)C(=O)NCc1cncn1CC	-8	1.12
COC[C@H]1CN(C(C)=O)CC12CCN(Cc1ccc3[nH]ccc3c1)CC2	0	0.01
CC(C)C(NC(=O)c1cnc(N(C)C)o1)C(C)C	-15	1.95
CCCc1nc(CS(=O)(=O)Cc2ccc(Cl)s2)no1	2	-0.21
O=C(c1ccco1)N1CCN(CCS(=O)(=O)c2ccc(Cl)cc2)CC1	-1	0.07
C[C@@H]1CN(Cc2ccccc2C(=O)O)C[C@]1(C)O	-1	0.25
Cc1oc2ccccc2c1CCNC(=O)c1cnn(C2CCC2)c1	-1	0.12
COCCc1nc2c(c(N3CCN(c4ccccc4F)CC3)n1)CCOCC2	-2	0.19
CC(C)(C)OC(=O)NCc1ccccn1	-12	1.61
CCc1ncc(C(=O)NCc2noc(C(N)=O)n2)cn1	-9	1.72
Cc1ccc(C(=O)N(C)[C@@H](c2ccccc2)c2ccccn2)c(=O)[nH]1	-10	1.5
Cc1cc(CS(=O)(=O)N2CC(C3CC3)C2C2CC2)on1 (configuration not stated)	3	-0.52

SMILES	% Inhibition [%]	Z score
Cc1ncccc1CCNC(=O)[C@H]1OCC[C@H]1Cn1cccn1	-5	0.75
CC(C)CC(=O)N1CCC2(CC1)N[C@@H](Cc1ccccc1)C(=O)N2Cc1ccco1	-3	0.4
Cc1csc(NC(=O)c2cc(-c3cccc(Cl)c3)[nH]n2)n1	4	-0.58
CCC[C@@H](CNc1nccc(NCC)n1)N(C)C	-15	1.35
O=C(Nc1ccccc1)C1C2C(=O)N(Cc3ccncc3)C[C@]23C=C[C@H]1O3 (some centres not stated)	-3	0.47
COCCOc1ccc(N)cc1Br	-12	1.58
CC(C)(C)n1cc(C(=O)Nc2nnc(-c3ccsc3)s2)cn1	-2	0.35
Cc1ncccc1C(=O)N1CC[C@H](CCOc2ccccc2F)C1	-15	2.82
OCC#Cc1ccc(CNc2ccc3cn[nH]c3c2)s1	-10	1.85
N#Cc1cnn(CC(=O)N(C2CCCCC2)[C@H]2CCS(=O)(=O)C2)c1	-6	1.03
CN1CCc2c(c3ccccc3n2/C=C\c2cccnc2)C1	-7	1.28
C[C@H]1C[C@@H](O)CCN1C(=O)c1ccoc1	-14	2.02
CC1CC(c2ccsc2)CN1S(=O)(=O)N(C)C (configuration not stated)	2	-0.27
c1cncc(-c2n[nH]cc2CNCc2ccc(Cn3cccn3)cc2)c1	-3	0.37
CON(C)C[C@H](O)Cn1cc(Nc2ncnc3cc(F)ccc23)cn1	33	-0.52
Cc1ccc(C)c(S(=O)(=O)NCCC(=O)N[C@@]2(C)CCS(=O)(=O)C2)c1	-3	0.44
O=C(N[C@H]1CCOc2c1ccc(Cl)c2Cl)C1CCOCC1	-2	0.38
CN(C)Cc1nnc(C2CCN(C(=O)CN(C)c3ccccc3)CC2)n1C	3	-0.44
Cc1[nH]c(=O)c(C#N)c(C)c1CCC(=O)N[C@@H]1C[C@@H](C)Oc2ccccc21	-3	0.52
Cc1nc(NC(=O)c2cccc3ccccc23)ccc1Cl	12	-1.34
CCc1sc(C(=O)NCC(C)(C)C(N)=O)cc1C	-8	1.11
CCCCN(CC)CCNC(=O)C1CCN(C2=NS(=O)(=O)C(c3ccc(OC)cc3)=C2C)CC1	57	-3.61

SMILES	% Inhibition [%]	Z score
COc1cccc(CNc2nc(C)c(-c3ccn(C[C@H]4CCCCO4)n3)s2)c1	-12	1.83
O=C(c1ccccc1)N(CC1CC1)C1CC1	-12	1.27
O=C(CCCN1CCCCC1=O)NC(c1ccccc1)c1ccccc1	-9	1
O=S(=O)(Nc1ncccn1)c1csc2ccc(Cl)cc12	1	-0.14
CC(C)n1ncc2c1CC(NC(=O)C(C)S(C)(=O)=O)CC2 (configuration not stated)	26	-3.62
CCCN1C(=O)c2c(C(=O)NCCN3CCOCC3)ncn2C[C@@]1(C)C(=O)NCc1ccc(C)cc1	-15	2.84
CCOc1ncccc1NC(=O)N(C)C1(CCO)CCOCC1	2	-0.29
COc1c2c(c(Br)c3c1[C@H](CC(=O)NCc1ccccc1)N(C)CC3)OCO2	-5	0.96
O=C1[C@@H](NC(=O)C2(O)CCCC2)CCCN1c1ccc(Cl)cc1Cl	16	-2.63
C=CCN[C@@H](C)c1cnc2ccnn2c1C	-14	1.42
CC1CCCCC1N(C)C(=O)c1cc2ccccc2c(=O)[nH]1 (configuration not stated)	37	-4.83
CC(C(=O)Nc1ccccc1-c1ccccc1)N1CCN(C2CCS(=O)(=O)C2)CC1 (configuration not stated)	-17	1.95
CCOCCN(C)Cc1c(C)nnn1CC	0	0.03
CC1(C)c2[nH]c3ccccc3c2C[C@H]2C(=O)N(Cc3ccc(Cl)cc3)CC(=O)N21	-4	0.54
O=S(=O)(NC[C@]1(OCCO)CCOC1)c1ccc(Cl)s1	-16	2.41
Cc1cc(=O)c(C(=O)N2CCCCC2)c(CC2CCCC2)n1Cc1cccnc1	8	-1.07
CCN(CC)c1ccc(C(=O)NCc2ccc3c(c2)CCN3C(C)=O)cc1	0	-0.04
Cc1ccc(-c2nocc2CCC(=O)NC[C@H]2CCCO2)cc1	-17	2.22
O=C(NCC(CO)Cc1ccc(Cl)cc1)C1CCCOC1 (configuration not stated)	-3	0.33
C[C@@H](CC(=O)N1CCN(CC(N)=O)C(=O)C1)c1ccc(F)cc1	-10	1.81
CC1CCCC(NC(=O)CN2CCN(C3CCN(S(C)(=O)=O)CC3)CC2)C1 (configuration not stated)	-8	1.58
Cn1c(=O)[nH]cc(CC(=O)NCc2ccc3[nH]c4c(c3c2)CCCC4)c1=O	-1	0.12

SMILES	% Inhibition [%]	Z score
CC(C)c1ocnc1C(=O)N1C[C@H]2CC[C@@H](C1)N(CC(=O)N(C)C)C2=O	9	-1.25
CCn1nc(CO)c2c1CCN(c1nccc(C3CCCC3)n1)C2	-10	1.66
COCCN(CC1CCN(Cc2ccccc2OC)CC1)C(=O)c1n[nH]c2c1CCC2	-6	0.8
O=C(Nc1ccnn1C1CCCC1)[C@@H]1CCCO1	-2	0.33
CCOc1ccc(-c2c[nH]c([C@H]3CCCN(CC)C3)n2)cc1OCC	-4	0.53
COC(C)(C)C[C@H](C)NCc1ccc2nonc2c1	-8	1.52
O=C(NC1CN(C(=O)Nc2cnns2)C1)C1CCC1	-13	1.41
CC(C)(C#N)C(=O)Nc1cc(S(C)(=O)=O)ccc1F	-12	1.49
O=C1CCC(=O)N1Cc1nc(C2CCC(F)(F)CC2)cs1	-10	1.23
CCCCNC(=O)OC[C@H]1CCCCN1	-5	0.55
Cc1nc2n(c1C)CCN([C@@H](C)C(=O)N1CCCc3ccccc31)C2	-7	1.29
CC(C)c1cncnc1NC(=O)Cc1ccccc1Cl	-16	1.84
c1ccc(-c2noc(-c3cncnc3N[C@H]3CCc4ccccc43)n2)cc1	-3	0.46
O=C(c1cccc2[nH]c(C(F)F)nc12)N1CCCC[C@H]1c1ccco1	-13	2.14
Cc1nc(C(=O)N2CCn3c(Cl)ccc3[C@@H]2C)c(C)o1	-5	0.73
CC(C)(C)C(=O)NCCCC(=O)N1CCCCC1	-11	1.64
COc1c(C)cnc(Cn2cc(Cl)c(=O)[nH]c2=O)c1C	-4	0.71
Cc1cc(NC(=O)N2C[C@H]3CC[C@@H](C2)[C@H]3O)n(Cc2ccccc2Cl)n1	-9	1.23
NC(=O)c1cc(F)c(F)cc1NS(=O)(=O)C[C@H]1CCCO1	-11	1.09
CC(C)(C)OC(=O)N1CC2(CN(Cc3ccccc3)CC(C)(C)O2)C1	-4	0.52
